Assay results: PubChem BioAssay AID1159614 (National Center for Advancing Translational Sciences (NCATS), 2016)
About 65 (0.1%) of roughly 45,000 compounds were called active. The call rests on the fitted dose curve; in most records, active means well fitted activation curve with a large enough effect; inconclusive means small, poorly fitted or top-dose-only effect; inactive means no such curve, though single readings can be large or run the other way. Some of the results follow.

Target: Galactocerebrosidase (Homo sapiens) (UniProt P54803)
UniProt P54803, sequence (P54803 whole entry, looked up): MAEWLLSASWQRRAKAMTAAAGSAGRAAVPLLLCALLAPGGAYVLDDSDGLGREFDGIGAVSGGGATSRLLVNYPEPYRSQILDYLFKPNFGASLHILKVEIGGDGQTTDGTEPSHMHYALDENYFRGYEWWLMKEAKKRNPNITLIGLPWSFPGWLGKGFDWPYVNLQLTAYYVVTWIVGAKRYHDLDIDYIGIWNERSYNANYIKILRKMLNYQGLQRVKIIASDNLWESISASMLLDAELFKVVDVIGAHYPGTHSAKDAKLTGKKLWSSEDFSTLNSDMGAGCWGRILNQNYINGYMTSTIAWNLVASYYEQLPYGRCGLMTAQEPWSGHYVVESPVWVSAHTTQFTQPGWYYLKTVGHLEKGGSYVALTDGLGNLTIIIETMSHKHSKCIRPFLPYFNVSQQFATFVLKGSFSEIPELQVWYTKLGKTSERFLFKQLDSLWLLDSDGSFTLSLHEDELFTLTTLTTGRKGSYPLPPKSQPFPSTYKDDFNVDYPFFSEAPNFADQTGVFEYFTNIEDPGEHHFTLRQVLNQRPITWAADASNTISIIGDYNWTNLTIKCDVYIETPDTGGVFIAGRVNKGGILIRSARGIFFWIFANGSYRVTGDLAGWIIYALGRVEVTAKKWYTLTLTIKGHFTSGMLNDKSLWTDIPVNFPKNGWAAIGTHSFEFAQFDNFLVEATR
Experiment: A Novel Cell-Based Assay to Identify Small Molecules for B -Galactocerebrosidase; further: 0% is about no effect; nearly all actives have a fitted effect of over 65% in size
Conditions: 145M-Twi-hGALC-G270D cells (Twitcher mouse brain line with human GALC G270D), HMU-beta-Gal fluorescence, 48 h; series mostly up to 57.5 µM; activation: at the top concentration
Procedure, shortened: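 Fluorescence readout: HMU-β-gal cleavage by mutant GALC (0.1 mM final, citrate/phosphate pH 5.2 with 1 mg/mL taurocholate), stopped with carbonate/bicarbonate plus Triton X-100. Cells: murine Twitcher 145M-Twi expressing human G270D GALC; qHTS for activators.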

activation, inactive:
O=C(NCC(c1ccco1)S(=O)(=O)c1cccs1)c1ccc(F)c(F)c1 (stereo not given) -10.6%
CCCOc1ccc(C2c3c(-c4c(C)cc(C)cc4O)n[nH]c3C(=O)N2CCO)cc1 (stereo not given) -7.87%
O=C(Cn1c(=O)n(Cc2ccccc2)c(=O)c2sc3ccccc3c21)Nc1ccccc1 -5.5%
CCOc1ccc(-c2cc3nc(C4CCN(C(=O)OC(C)(C)C)CC4)c(C(=O)Nc4cc(OC)ccc4OC)cn3n2)cc1 -16.3%
Cc1ccc(Cl)cc1NC(=O)c1sc(-n2nc(C)c(Cc3ccc4c(c3)OCO4)c2C)nc1C -9.85%
CCN1CCOC(=O)C1CC(=O)Nc1ccc(Br)cc1 (stereo not given) -14.4%
Cc1nn(C)c2c1c(-c1ccccc1)cc(=O)n2CC(=O)NC(C)c1ccccc1 (stereo not given) -19.7%
Cc1ccc(Cl)cc1NC(=O)Nc1cccc(OCc2cc(=O)n3ccccc3n2)c1 1.73%
COc1ccc(-n2c(-c3ccco3)nc3c(cnn3-c3ccccc3Cl)c2=O)cc1 20.4%
CCCCCn1c(CN2CCN(c3ccc(OC)cc3)CC2)nc2c1c(=O)[nH]c(=O)n2C -12.7%
CC(C)N(CCCNC(=O)Cn1ncc2c([nH]c3ccccc32)c1=O)Cc1ccccc1 -3.81%
COCCNC(=O)c1ccc2nc(Cc3ccccc3)oc2c1 -24.6%
Cc1cc(C)c2c(=O)cc(C(=O)Nc3sc4c(c3C(=O)NCC3CCCO3)CCCC4)oc2c1 (stereo not given) -2.31%
Cc1ccc(Nc2nnc(-c3ccc(C)c(S(=O)(=O)N4CCOCC4)c3)c3ccccc23)cc1 -20.6%
COc1ccc(C)cc1NC(=O)CC1NCCNC1=O (stereo not given) -4.27%
Cc1cc(=O)n(Cc2ccccc2)c2c1c(C)nn2C -17.9%
CC(=O)c1ccc(N2CCN(c3ccc4cc(S(=O)(=O)N5CCCCC5)ccc4n3)CC2)cc1 9.05%
COc1ccc(-c2nc(CS(=O)(=O)CC(=O)NCCc3ccc(C)cc3)c(C)o2)cc1 -26.1%
CCOC(=O)c1ccc(NC(=O)CSc2nc3ccccc3c(=O)n2CCC(=O)NC2CCCCC2)cc1 -15.4%
CCC(=O)C1=C(c2ccc(OC)c(OC)c2)N(C(=O)CC)n2c(nnc2-c2ccc(C)cc2)S1 -21.6%
COc1ccc(OC)c(CNS(=O)(=O)c2ccc(-c3coc(C)n3)cc2)c1 -9.54%
CC(=O)c1cc(-c2ccccc2)n(CC(=O)Nc2ccc(C)c(C)c2)c1C -6.09%
Cc1cc2nc(-c3ccc(NC(=O)c4ccccc4F)cc3)oc2cc1C 12.7%
COc1ccccc1-c1noc(-c2ccc(NC3CCCC3)c([N+](=O)[O-])c2)n1 -12.9%
COc1ccccc1-c1nc(SCC(=O)NCc2ccccc2)c2c(=O)n(C)c(=O)n(C)c2n1 -9.81%
CCOc1ccc(CNC(=O)CS(=O)(=O)c2cccc3nsnc23)cc1 -4.82%
COc1ccc(NC(=O)C(NS(=O)(=O)c2cccc3nsnc23)C(C)C)cc1 (stereo not given) -8.58%
COc1ccccc1CNc1nc2c(S(=O)(=O)c3ccc(C)c(C)c3)nnn2c2ccc(Cl)cc12 -6.21%
O=C(Cn1c(=O)oc2cc(S(=O)(=O)NCc3ccccc3)ccc21)Nc1cccc(F)c1 -3.7%
O=C(c1ccc(F)cc1)c1cn(Cc2ccccc2)c2cc3c(cc2c1=O)OCO3 -12.8%
CCOC(=O)c1c(NC(=O)c2cc(-c3ccc(Br)cc3)on2)sc(C(C)=O)c1C -19.1%
COc1ccc(NC(=O)c2cc3ccccc3o2)c(OC)c1 -10.2%
O=C(COc1ccccc1Cl)Nc1ccc(-c2nc3ccccc3s2)cc1 -12.2%
CC1CCCN(c2cc3c(cc2F)c(=O)c(S(=O)(=O)c2cccc(Cl)c2)cn3Cc2ccccc2)C1 (stereo not given) -16.9%
COc1ccc(C2=CC(c3cc(Br)ccc3F)n3c(nc4ccccc43)N2)cc1 (stereo not given) -7.46%
O=C(Nc1c(C(=O)N2CCN(c3ccccc3F)CC2)oc2ccccc12)c1cccc(F)c1 1.39%
Cc1oc(-c2ccc(C(=O)Nc3ccc(F)cc3)cc2)nc1COc1ccccc1 -15.5%
Cc1cccc(CS(=O)(=O)c2ncc(Cl)c(C(=O)Nc3nnc(C(C)C)s3)n2)c1 -6.72%
O=C(CCn1c(=O)c2cccn2c2cccnc21)N1CCN(c2cccc(C(F)(F)F)c2)CC1 -7.13%
CC(C)NC(=O)c1ccc(Cn2c(SCc3ccc(F)cc3)nc3cccnc32)cc1 4.45%
COc1ccc(CCNC(=O)C(=O)NCC(c2ccco2)S(=O)(=O)c2ccc(C)cc2)cc1 (stereo not given) 3%
COc1ccc(C(=O)/C=C/c2cn(CC(O)CN3CCc4ccccc43)c3ccccc23)cc1OC (stereo not given) -11.7%
CCC(C(=O)Nc1cc(C)ccc1C)n1c(=O)c(C(F)(F)F)nc2ccccc21 (stereo not given) -11.4%
COCc1nnc(NC(=O)c2cc(OC)c(OC)c(OC)c2)s1 -2.38%
COc1ccc(OC)c(/C=C/c2nc3ccccc3c(=O)n2-c2ccc(F)c(Cl)c2)c1 -8.71%
Cc1ccc(NC(=O)C2CCCN(S(=O)(=O)c3c(C)n[nH]c3C)C2)c(C)c1 (stereo not given) -9.69%
COc1cccc(CNS(=O)(=O)c2cnc(N)nc2)c1 -10.2%
COc1ccccc1CNC(=O)CCc1c(C)c2cc3c(C)c(C)oc3cc2oc1=O 3.77%
C=CCc1cccc2cc(-c3nc4ccc(C)cc4[nH]3)c(=O)oc12 -7.42%
CCOC(=O)c1ccc(NC(=O)Cn2cc(C(=O)C3CC3)c3ccccc32)cc1 -14.8%
COc1ccc(CCNC(=O)c2ccc3c(c2)N(Cc2ccc(F)cc2)C(=O)c2ccccc2S3(=O)=O)cc1OC -0.328%
COCC(=O)n1nc(-c2ccco2)nc1NCc1ccccc1Cl -11.8%
Nc1nc2c(ncn2COC(CO)CO)c(=O)[nH]1 -21.6%
COc1cc(OC)cc(C(=O)Nc2ccc(-c3nc4ccccc4s3)cc2C)c1 8.95%
Cc1cc(C)n(-c2nc(C)c(C)c(=O)n2CC(=O)Nc2ccc([N+](=O)[O-])cc2)n1 -2.56%
Cc1ccc(-n2ncc3c(NCCCN4CCOCC4)ncnc32)cc1C 4.53%
CCOC(=O)c1ccc(NC(=O)CCCn2c(=O)c3cccn3c3ccccc32)cc1 -12.2%
Cc1ccccc1Nc1c(-c2c(F)cccc2Cl)nc2ccc(Br)cn12 -13.8%
Cc1c(C(=O)Nc2cccc(C(F)(F)F)c2)sc2nc[nH]c(=O)c12 -31%
CC(C)c1ccc(NC(=O)Cn2c(=O)n(CC3CCC(C(=O)NCCc4ccccc4)CC3)c(=O)c3ccccc32)cc1 (stereo not given) -8.34%
